Laboratory results as given in the antibiotic and cytotoxicity screens of Wong et al. (2023).
Some of the results follow.

What was measured:
HSkMC = human skeletal muscle cells; assay: cytotoxicity call (relative viability < 0.9); conditions: 10 µM
S. aureus RN4220 = assay: growth inhibition call (relative growth <= 0.2); conditions: 50 µM

SMILES | cytotoxicity call (HSkMC) | growth inhibition call (S. aureus RN4220)
C[C@H]1CN([C@@H](C)CO)C(=O)c2cc(-c3cccnc3)cnc2O[C@H]1CN(C)Cc1ccc(-c2ccccc2)cc1 | inactive | inactive
C[C@H](CO)N1C[C@H](C)[C@@H](CN(C)Cc2ccc(C(=O)Nc3ccccc3N)cc2)Oc2ccc(NC(=O)Nc3ccc(C(F)(F)F)cc3)cc2C1=O | inactive | inactive
C[C@@H]1CN([C@@H](C)CO)C(=O)Cc2cc(NC(=O)Cn3cnnn3)ccc2O[C@@H]1CN(C)S(=O)(=O)c1cn(C)cn1 | inactive | inactive
O=C(C[C@@H]1CC[C@H](NC(=O)CN2CCOCC2)[C@H](CO)O1)NCCc1ccncc1 | inactive | inactive
CN1CCN(C(=O)C[C@H]2CC[C@H]3[C@@H](COC[C@H](O)CN3Cc3ccc(Oc4ccccc4)cc3)O2)CC1 | inactive | inactive
C[C@@H]1CN([C@@H](C)CO)C(=O)c2cccc(NC(=O)Nc3ccc(C(F)(F)F)cc3)c2O[C@H]1CN(C)C(=O)Nc1ccc(C(F)(F)F)cc1 | inactive | inactive
COc1ccc([C@@H](N)c2ccncc2)cc1 | inactive | inactive
O=c1cc(-c2cccc(O)c2)oc2ccc(O)cc12 | inactive | inactive
COc1ccc(S(=O)(=O)Nc2ccc3c(c2)CC(=O)N([C@H](C)CO)C[C@@H](C)[C@H](CN(C)C)O3)cc1 | inactive | inactive
Cc1ccc(S(=O)(=O)Nc2ccc3c(c2)C(=O)N([C@H](C)CO)C[C@H](C)[C@@H](CN(C)Cc2ccc(C(F)(F)F)cc2)O3)cc1 | inactive | inactive
C[C@@H]1CCCCO[C@H](CN(C)C(=O)C2CCCCC2)[C@@H](C)CN([C@@H](C)CO)C(=O)c2cc(NC(=O)NC3CCCCC3)ccc2O1 | inactive | inactive
CC(C)CC#Cc1ccc2c(c1)O[C@@H](CN(C)S(=O)(=O)c1cccc(F)c1)[C@H](C)CN([C@@H](C)CO)S2(=O)=O | inactive | inactive
C[C@H](CO)N1C[C@H](C)[C@@H](CN(C)S(C)(=O)=O)Oc2c(NC(=O)NC3CCCCC3)cccc2C1=O | inactive | inactive
C[C@@H]1CCCCO[C@@H](CN(C)C(=O)CCC(F)(F)F)[C@@H](C)CN([C@H](C)CO)C(=O)c2cc(NC(=O)Cc3ccccc3)ccc2O1 | inactive | inactive
Cn1cnc(CCNC(=O)C[C@H]2CC[C@H]3[C@@H](COC[C@H](O)CN3C(=O)C3CC3)O2)c1 | inactive | inactive
C[C@H]1CCCCO[C@H](CN(C)Cc2ccncc2)[C@@H](C)CN([C@@H](C)CO)C(=O)c2cc(NC(=O)NC3CCCCC3)ccc2O1 | inactive | inactive
C[C@@H]1CCCCO[C@H](CN(C)C(=O)Nc2ccc(C(F)(F)F)cc2)[C@H](C)CN([C@H](C)CO)C(=O)c2cc(NC(=O)Nc3ccccc3)ccc2O1 | inactive | inactive
C[C@H]1CN([C@@H](C)CO)C(=O)Cc2cc(NC(=O)Cn3cnnn3)ccc2O[C@H]1CN(C)C(=O)Nc1ccc2c(c1)OCO2 | inactive | inactive
Cc1noc(C)c1S(=O)(=O)Nc1cccc2c1O[C@H](CN(C)S(=O)(=O)c1c(C)noc1C)[C@H](C)CN([C@@H](C)CO)C2=O | inactive | inactive
CC(C)NC(=O)N(C)C[C@H]1OCCCC[C@H](C)Oc2ccc(NC(=O)Nc3ccc(C(F)(F)F)cc3)cc2C(=O)N([C@H](C)CO)C[C@@H]1C | inactive | inactive
C[C@@H]1CN([C@H](C)CO)S(=O)(=O)c2ccc(C#Cc3cccc(F)c3)cc2O[C@H]1CN(C)S(=O)(=O)c1ccccc1F | inactive | inactive
Cc1noc(C)c1S(=O)(=O)Nc1ccc2c(c1)C(=O)N([C@@H](C)CO)C[C@@H](C)[C@@H](CN(C)S(=O)(=O)c1ccc(F)cc1)O2 | inactive | inactive
C[C@H](CO)N1C[C@H](C)[C@H](CN(C)S(=O)(=O)c2cn(C)cn2)Oc2ccc(NS(=O)(=O)c3ccccc3)cc2C1=O | inactive | inactive
COc1ccc(CN(C)C[C@@H]2OCCCC[C@H](C)Oc3ccc(NC(=O)Nc4ccc(OC)cc4)cc3C(=O)N([C@H](C)CO)C[C@@H]2C)cc1 | inactive | inactive
C[C@@H]1CCCCO[C@@H](CN(C)C(=O)Cc2ccccc2)[C@@H](C)CN([C@H](C)CO)C(=O)c2cc(NC(=O)Nc3ccc4c(c3)OCO4)ccc2O1 | inactive | inactive
CCCC#Cc1ccc2c(c1)O[C@@H](CN(C)S(=O)(=O)c1cccc(OC)c1)[C@@H](C)CN([C@H](C)CO)S2(=O)=O | inactive | inactive
